Experimental data as given in article PMC4098744, “Systematic family‐wide analysis of sodium bicarbonate cotransporter NBCn1/SLC4A7 interactions with PDZ scaffold proteins” (Physiological Reports, 2014).
Results are given in words; binding and its absence hold for the method and conditions named. Binding seen in cells or lysates may run through a third protein. Some entries that bind do so weakly or less than the wild type. Sequences can lack the tags named with a protein.

Legend:
Experiment in all cases: pull-down; GST/syntrophin γ2 constructs on Glutathione-Sepharose beads incubated with membrane lysates of rat brains, 4°C, 4 h, PBS with 0.5% Nonidet P-40; blot with NBCn1 antibody; only the target purified
GST/Syn‐PDZ (human) = target: T1, GST/Syn‐PDZ (human) (UniProt Q9NY99)
T1 sequence: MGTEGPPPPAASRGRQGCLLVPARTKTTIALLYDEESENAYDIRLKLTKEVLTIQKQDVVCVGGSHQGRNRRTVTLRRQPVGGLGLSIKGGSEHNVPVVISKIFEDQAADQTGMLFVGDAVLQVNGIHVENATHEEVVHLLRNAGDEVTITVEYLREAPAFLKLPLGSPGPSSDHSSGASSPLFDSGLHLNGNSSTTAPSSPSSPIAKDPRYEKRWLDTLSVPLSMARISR

GST/Syn‐full (human) = target: T2, GST/Syn‐full (human) (UniProt Q9NY99)
T2 sequence: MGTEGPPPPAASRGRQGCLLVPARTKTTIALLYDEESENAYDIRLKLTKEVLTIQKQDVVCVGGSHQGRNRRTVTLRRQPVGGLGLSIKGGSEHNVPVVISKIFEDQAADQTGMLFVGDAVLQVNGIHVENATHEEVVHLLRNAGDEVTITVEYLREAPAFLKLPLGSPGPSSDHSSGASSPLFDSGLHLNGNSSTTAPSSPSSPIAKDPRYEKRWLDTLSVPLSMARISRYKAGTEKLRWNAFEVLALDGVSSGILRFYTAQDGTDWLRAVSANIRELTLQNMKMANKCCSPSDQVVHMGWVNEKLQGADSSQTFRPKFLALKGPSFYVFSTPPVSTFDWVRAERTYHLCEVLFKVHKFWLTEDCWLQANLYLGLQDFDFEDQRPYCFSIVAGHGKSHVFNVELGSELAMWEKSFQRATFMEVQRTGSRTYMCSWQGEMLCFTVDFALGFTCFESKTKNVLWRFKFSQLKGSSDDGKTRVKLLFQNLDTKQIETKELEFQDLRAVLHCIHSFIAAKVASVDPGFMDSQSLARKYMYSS

GST/Syn‐ΔPDZ (human) = target: T3, GST/Syn‐ΔPDZ (human) (UniProt Q9NY99)
T3 sequence: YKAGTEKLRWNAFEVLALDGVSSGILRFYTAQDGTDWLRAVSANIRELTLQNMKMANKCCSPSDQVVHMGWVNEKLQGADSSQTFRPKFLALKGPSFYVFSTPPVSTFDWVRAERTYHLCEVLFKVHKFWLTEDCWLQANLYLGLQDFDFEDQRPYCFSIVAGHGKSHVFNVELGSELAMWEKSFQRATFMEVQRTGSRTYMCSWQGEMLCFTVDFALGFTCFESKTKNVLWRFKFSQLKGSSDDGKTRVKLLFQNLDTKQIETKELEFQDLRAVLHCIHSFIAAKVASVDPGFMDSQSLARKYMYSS

B1: NBCn1 in membrane lysates of rat brains (protein, UniProt Q9R1N3 1-1218)
chain: MEADGAGEQMRPLLTRGPDEEAVVDLGKTSSTVNTKFEKEELESHRAVYVGVHVPFSKESRRRHRHRGHKHHHRRRKDKDSDKEDGRESPSYDTPSQRVQFILGTEDDDEEHIPHDLFTEMDELCYRDGEEYEWKETARWLKFEEDVEDGGDRWSKPYVATLSLHSLFELRSCILNGTVMLDMRASTLDEIADMVLDNMIASGQLDDSIRENVREALLKRHHHQNEKRFTSRIPLVRSFADIGKKHSDPHLLERNGEGLSASRHSLRTGLSASNLSLRGESPLSLLLSHLLPSSRAGTPAGSRCTTPVPTPQNSPPSSPSLSRLTSRSSQQTQPQAPEVLVSPDRDDIPRVVIHPPEEDIEALKGQEQKNEENTDFTPGILASPQSAPGNLDSSKSGEVKGNGSGGSRENSTVDFSKVDMNFMRKIPTGAEASNVLVGEVDFLERPIIAFVRLAPAVLLSGLTEVPVPTRFLFLLLGPAGKAPQYHEIGRSIATLMTDEIFHDVAYKAKDRNDLLSGIDEFLDQVTVLPPGEWDPSIRIEPPKSVPSQEKRKIPAFPNGSAPVSADPPKEADHHAGPELQRTGRLFGGLILDIKRKAPFFLSDFKDALSLQCLASILFLYCACMSPVITFGGLLGEATEGRISAIESLFGASLTGIAYSLFAGQPLTILGSTGPVLVFEKILFKFCRDYHLSYLSLRTSIGLWTSFLCIVLVATDASSLVCYITRFTEEAFAALICIIFIYEALEKLFHLGEIYAFNMHNNLDALTSYTCVCAEPSNPSNETVELWERKNVTAASISWANLTVSECKTFHGMFVGSACGPHGPYVPDVLFWCVVLFFTTFFLSSFLKQFKTKRYFPTKVRSTISDFAVFLTIVIMVAIDYLVGIPSPKLHVPEKFEPTDPSRGWIISPLGDNPWWTLLIAAVPALLCTILIFMDQQITAVIINRKEHKLKKGAGYHLDLLMVAVMLGVCSIMGLPWFVAATVLSISHVNSLKVESECSAPGEQPKFLGIREQRVTGLMIFILMGLSVFMTSVLKFIPMPVLYGVFLYMGVSSLKGIQFFDRIKLFGMPAKHQPDLIYLRYVPLWKVHVFTVVQLTCLVLLWVIKASAAAVVFPMMVLALVFVRKLMDLCFTKRELSWLDDLMPESKKKKEDDKKKKEKEEAERMLQGDGDTVHLPFERGSLLQIPVKTLKYSPEKPVSVTINFEDEPSKKYMDAETSL
binding (GST/Syn‐PDZ (human)): binds | binding (GST/Syn‐full (human)): binds | binding (GST/Syn‐ΔPDZ (human)): no binding
